T1: RBFOX1 RRM (Homo sapiens, UniProt Q9NWB1 109-208)
T1 sequence: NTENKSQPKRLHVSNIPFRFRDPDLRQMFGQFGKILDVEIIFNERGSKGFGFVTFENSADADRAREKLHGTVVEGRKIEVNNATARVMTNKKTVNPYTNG

B1: UUCGGCU (DNA:RNA)
RNA: GGGAGACCGGAAUUCAGAUUGUCCUUCGGCUUUAAAUCCCGUCGUAGCCACCA
DNA 1: CAATCTGAATTCCGGTCTCCC
DNA 2: TGGTGGCTACGACGGGATT
B2: AAUUCGG (DNA:RNA)
RNA: GGGAGACCGGAAUUCAGAUUGUCCAAUUCGGUUAAAUCCCGUCGUAGCCACCA
DNA 1: CAATCTGAATTCCGGTCTCCC
DNA 2: TGGTGGCTACGACGGGATT
B3: AAGUAAC (DNA:RNA)
RNA: B2 RNA with U27G, C29A, G30A, G31C
DNA 1: CAATCTGAATTCCGGTCTCCC
DNA 2: TGGTGGCTACGACGGGATT
B4: UGGGUGA (DNA:RNA)
RNA: B1 RNA with U26G, C27G, G29U, C30G, U31A
DNA 1: CAATCTGAATTCCGGTCTCCC
DNA 2: TGGTGGCTACGACGGGATT
B5: AAGAGGU (DNA:RNA)
RNA: B2 RNA with U27G, U28A, C29G, G31U
DNA 1: CAATCTGAATTCCGGTCTCCC
DNA 2: TGGTGGCTACGACGGGATT
B6: GACGCGC (DNA:RNA)
RNA: B2 RNA with A25G, U27C, U28G, G31C
DNA 1: CAATCTGAATTCCGGTCTCCC
DNA 2: TGGTGGCTACGACGGGATT
B7: GGGGUUU (DNA:RNA)
RNA: B1 RNA with U25G, U26G, C27G, G29U, C30U
DNA 1: CAATCTGAATTCCGGTCTCCC
DNA 2: TGGTGGCTACGACGGGATT
B8: AUCCUGU (DNA:RNA)
RNA: B1 RNA with U25A, G28C, G29U, C30G
DNA 1: CAATCTGAATTCCGGTCTCCC
DNA 2: TGGTGGCTACGACGGGATT
B9: AGCGUGU (DNA:RNA)
RNA: B1 RNA with U25A, U26G, G29U, C30G
DNA 1: CAATCTGAATTCCGGTCTCCC
DNA 2: TGGTGGCTACGACGGGATT
B10: AGAUAGA (DNA:RNA)
RNA: B2 RNA with A26G, U27A, C29A, G31A
DNA 1: CAATCTGAATTCCGGTCTCCC
DNA 2: TGGTGGCTACGACGGGATT
B11: UGUACGG (DNA:RNA)
RNA: B2 RNA with A25U, A26G, U28A
DNA 1: CAATCTGAATTCCGGTCTCCC
DNA 2: TGGTGGCTACGACGGGATT
B12: UAUCACA (DNA:RNA)
RNA: B2 RNA with A25U, U28C, C29A, G30C, G31A
DNA 1: CAATCTGAATTCCGGTCTCCC
DNA 2: TGGTGGCTACGACGGGATT
B13: GUAACUC (DNA:RNA)
RNA: B2 RNA with A25G, A26U, U27A, U28A, G30U, G31C
DNA 1: CAATCTGAATTCCGGTCTCCC
DNA 2: TGGTGGCTACGACGGGATT
B14: AGACAAU (DNA:RNA)
RNA: B2 RNA with A26G, U27A, U28C, C29A, G30A, G31U
DNA 1: CAATCTGAATTCCGGTCTCCC
DNA 2: TGGTGGCTACGACGGGATT
B15: AACGGGU (DNA:RNA)
RNA: B1 RNA with U25A, U26A, C30G
DNA 1: CAATCTGAATTCCGGTCTCCC
DNA 2: TGGTGGCTACGACGGGATT
B16: UCGUAGG (DNA:RNA)
RNA: B2 RNA with A25U, A26C, U27G, C29A
DNA 1: CAATCTGAATTCCGGTCTCCC
DNA 2: TGGTGGCTACGACGGGATT
B17: CCCGUAA (DNA:RNA)
RNA: B1 RNA with U25C, U26C, G29U, C30A, U31A
DNA 1: CAATCTGAATTCCGGTCTCCC
DNA 2: TGGTGGCTACGACGGGATT
B18: AGUUGCA (DNA:RNA)
RNA: B2 RNA with A26G, C29G, G30C, G31A
DNA 1: CAATCTGAATTCCGGTCTCCC
DNA 2: TGGTGGCTACGACGGGATT
B19: CGUGACC (DNA:RNA)
RNA: B1 RNA with U25C, U26G, C27U, G29A, U31C
DNA 1: CAATCTGAATTCCGGTCTCCC
DNA 2: TGGTGGCTACGACGGGATT
B20: UUCGCCA (DNA:RNA)
RNA: B1 RNA with G29C, U31A
DNA 1: CAATCTGAATTCCGGTCTCCC
DNA 2: TGGTGGCTACGACGGGATT

Positions count from the first letter of the chain named. The list shows a part of the results.

For the test, the target named is T1, RBFOX1 RRM. The test can be described thus: EMSA; HiTS-Eq, 1 nM pool, 10 min; buffer printed only for the single-RNA assays: 10 mM Tris pH 7.5, 150 mM NaCl, 3.4 mM EDTA, 0.001% NP-40, 30 C. Particulars: tags: His6 N-terminal (pET28a); label: 5' 32P. The method in brief:
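A pool of RNA with 7 randomized nucleotides, 5′-radiolabelled and with DNA-annealed flanks, was equilibrated at 1 nM for 10 min in 50 µL with purified RbFox RRM, wild type or mutant, across increasing protein concentrations. Free RNA was separated by 8% native PAGE, excised, reverse-transcribed, barcoded by PCR and sequenced. Relative association constants were obtained from read-count changes of each RNA species versus the control reaction and normalised to the cognate motif.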
A general note: A gel shift assay detects complexes by their altered migration in electrophoresis.
In the case of B1, the binding signal is 0.0136 KA relative to UGCAUGU.
For B2, the binding signal is 0.0123 KA relative to UGCAUGU.
Under B3 stands 0.00575 KA relative to UGCAUGU; under B4, 0.0273 KA relative to UGCAUGU; under B5, 0.00938 KA relative to UGCAUGU.
For the molecule B6, the binding signal is 0.0188 KA relative to UGCAUGU.
For the molecule B7, the binding signal was 0.046 KA relative to UGCAUGU.
Under B8 stands 0.00791 KA relative to UGCAUGU; under B9, 0.0177 KA relative to UGCAUGU; under B10, 0.00849 KA relative to UGCAUGU.
The value for B11 was 0.0102 KA relative to UGCAUGU.
On to B12, for which the binding signal is 0.000592 KA relative to UGCAUGU.
In the case of B13, the binding signal is 0.0108 KA relative to UGCAUGU.
As to B14, the binding signal is 0.00455 KA relative to UGCAUGU.
Under B15 stands 0.011 KA relative to UGCAUGU; under B16, 0.00965 KA relative to UGCAUGU; under B17, 0.000282 KA relative to UGCAUGU.
Under B18 stands 0.0173 KA relative to UGCAUGU.
The value for B19 was 0.0102 KA relative to UGCAUGU.
As for B20, the binding signal was 0.00715 KA relative to UGCAUGU.

The values are drawn from PMC9911399, “Two distinct binding modes provide the RNA-binding protein RbFox with extraordinary sequence specificity”.
